Laboratory results: the supplement of paper PMC4604168 (melanoma cell lines)
The list shows a part of the results. Repeats are few or missing, and single values can be far off.

System: WM451Lu
Assay: cell count relative to DMSO control; melanoma cells; higher = more viable cells
Settings: library dose: low library concentration; 72 h
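Also: cell number obtained by counting DAPI-stained nuclei in high-throughput microscope images with image analysis software, screen run in 1,536-well plates.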

Compound | cell count
C/C(O)=C(\C#N)C(=O)Nc1cc(Br)ccc1Br + CC(C)CCN1c2nc(Nc3cc(F)c(O)c(F)c3)ncc2N(C)C(=O)C1C [BID1870] (first compound 2 µM, partner dose 0.2 µM) | 102%
COc1ccc(C2=N[C@@H](c3ccc(Cl)cc3)[C@@H](c3ccc(Cl)cc3)N2C(=O)N2CCNC(=O)C2)c(OC(C)C)c1 [Nutlin-3] + N.N.[Cl][Pt][Cl] [cisplatin] (first compound 0.1 µM, partner dose 1.6 µM) | 90.1%
O=C(Nc1cc(C(F)(F)F)cc(C(F)(F)F)c1)c1cc(Cl)ccc1O + C/C(O)=C(\C#N)C(=O)Nc1cc(Br)ccc1Br [LFM-A13] (first compound 0.016 µM, partner dose 2 µM) | 94.7%
Cc1cc(SCc2sc(-c3ccc(C(F)(F)F)c(F)c3)nc2C)ccc1OCC(=O)O + C/C(O)=C(\C#N)C(=O)Nc1cc(Br)ccc1Br [LFM-A13] (first compound 2 µM, partner dose 2 µM) | 117%
CCCCCCCCCCCCCCCCCCOP(=O)([O-])OC1CC[N+](C)(C)CC1 [Perifosine] + C[As](C)SC[C@H](NC(=O)CC[C@H](N)C(=O)O)C(=O)NCC(=O)O [Darinaparsin] (first compound 0.4 µM, partner dose 0.4 µM) | 58.6%
O=C(/C=C/c1cccnc1)NCCCCC1CCN(C(=O)c2ccccc2)CC1 + N.N.[Cl][Pt][Cl] [cisplatin] (first compound 0.01 µM, partner dose 1.6 µM) | 102%
COc1ccc(-c2ccc3c(N4CCOCC4)nc(N4C[C@@H](C)O[C@@H](C)C4)nc3n2)cc1CO + O=C(Oc1ccc([N+](=O)[O-])cc1)N1CCC(C(O)(c2ccc3c(c2)OCO3)c2ccc3c(c2)OCO3)CC1 [JZL184] (first compound 0.02 µM, partner dose 1 µM) | 108%
C=C(c1ccc(C(=O)O)cc1)c1cc2c(cc1C)C(C)(C)CCC2(C)C [Bexarotene] + C[As](C)SC[C@H](NC(=O)CC[C@H](N)C(=O)O)C(=O)NCC(=O)O [Darinaparsin] (first compound 2 µM, partner dose 0.4 µM) | 85.1%
CC1(C)CCC(c2ccc(Cl)cc2)=C(CN2CCN(c3ccc(C(=O)NS(=O)(=O)c4ccc(N[C@H](CCN5CCOCC5)CSc5ccccc5)c(S(=O)(=O)C(F)(F)F)c4)cc3)CC2)C1 + O=C(Oc1ccc([N+](=O)[O-])cc1)N1CCC(C(O)(c2ccc3c(c2)OCO3)c2ccc3c(c2)OCO3)CC1 [JZL184] (first compound 0.4 µM, partner dose 1 µM) | 49.7%
CC(=O)O[C@@]12CO[C@@H]1C[C@H](O)[C@@]1(C)C(=O)[C@H](O)C3=C(C)[C@@H](OC(=O)[C@H](O)[C@@H](NC(=O)OC(C)(C)C)c4ccccc4)C[C@@](O)([C@@H](OC(=O)c4ccccc4)[C@H]21)C3(C)C [Docetaxel] + C/C(O)=C(\C#N)C(=O)Nc1cc(Br)ccc1Br [LFM-A13] (first compound 0.0001 µM, partner dose 2 µM) | 48.1%
CC[C@]1(O)C[C@H]2CN(CCc3c([nH]c4ccccc34)[C@@](C(=O)OC)(c3cc4c(cc3OC)N(C=O)[C@H]3[C@@](O)(C(=O)OC)[C@H](OC(C)=O)[C@]5(CC)C=CCN6CC[C@]43[C@@H]65)C2)C1 [vincristine] + N.N.[Cl][Pt][Cl] [cisplatin] (first compound 0.0001 µM, partner dose 1.6 µM) | 96.3%
O=c1[nH]nc(Sc2ncc([N+](=O)[O-])s2)n1-c1ccc2c(c1)OCCO2 + O=C(Oc1ccc([N+](=O)[O-])cc1)N1CCC(C(O)(c2ccc3c(c2)OCO3)c2ccc3c(c2)OCO3)CC1 [JZL184] (first compound 0.2 µM, partner dose 1 µM) | 156%
O=S(=O)(c1ccccc1)N(CC(F)(F)F)c1ccc(C(O)(C(F)(F)F)C(F)(F)F)cc1 + C/C(O)=C(\C#N)C(=O)Nc1cc(Br)ccc1Br [LFM-A13] (first compound 1.4 µM, partner dose 2 µM) | 90.4%
O=C(Nc1cc(C(F)(F)F)cc(C(F)(F)F)c1)c1cc(Cl)ccc1O + O=C(Oc1ccc([N+](=O)[O-])cc1)N1CCC(C(O)(c2ccc3c(c2)OCO3)c2ccc3c(c2)OCO3)CC1 [JZL184] (first compound 0.016 µM, partner dose 1 µM) | 89.7%
